The values that follow come from article PMC4336329 (PLoS ONE, 2015).

The structures appear in SMILES notation. Out of some 310,000 compounds screened, about 14,000 (4.5%) showed an effect of 50% or more. The effect is printed as a negative number. Some of the results follow.
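Also: peak tail current of the secondary pulse compared with the same well before compound.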

In this experiment the target is human ether-à-go-go-related gene (hERG) potassium channel (human, UniProt Q12809). The experiment in a line: primary screen, population patch clamp on CHO cells stably expressing hERG.
Chain of human ether-à-go-go-related gene (hERG) potassium channel (Q12809 whole entry, looked up): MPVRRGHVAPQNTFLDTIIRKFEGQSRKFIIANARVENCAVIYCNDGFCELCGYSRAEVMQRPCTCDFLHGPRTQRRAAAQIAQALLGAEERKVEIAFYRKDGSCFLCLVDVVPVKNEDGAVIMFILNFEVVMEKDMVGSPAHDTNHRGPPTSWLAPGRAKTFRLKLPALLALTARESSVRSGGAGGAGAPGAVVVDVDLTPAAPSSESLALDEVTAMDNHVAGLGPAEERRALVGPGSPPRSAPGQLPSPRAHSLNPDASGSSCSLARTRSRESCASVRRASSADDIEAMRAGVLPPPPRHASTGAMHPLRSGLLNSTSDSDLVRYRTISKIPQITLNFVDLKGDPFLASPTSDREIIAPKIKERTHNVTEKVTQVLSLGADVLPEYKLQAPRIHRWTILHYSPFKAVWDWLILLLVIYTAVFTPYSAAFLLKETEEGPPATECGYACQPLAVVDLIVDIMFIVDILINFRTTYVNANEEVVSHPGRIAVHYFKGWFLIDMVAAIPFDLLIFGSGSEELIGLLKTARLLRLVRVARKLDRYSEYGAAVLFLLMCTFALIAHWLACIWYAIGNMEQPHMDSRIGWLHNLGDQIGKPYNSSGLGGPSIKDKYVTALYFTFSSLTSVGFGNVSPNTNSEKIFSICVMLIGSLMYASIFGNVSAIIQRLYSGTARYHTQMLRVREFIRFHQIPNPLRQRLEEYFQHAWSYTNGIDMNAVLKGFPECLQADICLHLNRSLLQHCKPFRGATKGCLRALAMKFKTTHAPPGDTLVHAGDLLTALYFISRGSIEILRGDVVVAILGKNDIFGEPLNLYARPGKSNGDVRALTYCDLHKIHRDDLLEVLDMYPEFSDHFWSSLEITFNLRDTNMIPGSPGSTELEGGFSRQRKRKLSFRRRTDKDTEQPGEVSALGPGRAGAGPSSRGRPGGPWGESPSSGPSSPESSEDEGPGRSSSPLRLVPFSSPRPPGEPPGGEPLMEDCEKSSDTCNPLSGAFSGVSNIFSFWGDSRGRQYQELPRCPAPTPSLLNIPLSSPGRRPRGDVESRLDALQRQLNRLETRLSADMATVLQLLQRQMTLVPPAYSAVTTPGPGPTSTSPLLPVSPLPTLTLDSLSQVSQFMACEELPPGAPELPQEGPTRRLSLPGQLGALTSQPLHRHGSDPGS
On to `COc1cccc(C(=O)Nc2cccc(C(C)=O)c2)c1`, for which the “hERG current change (%, negative = inhibition) at 10uM” value was determined as 10.3%.

For the molecule `Cc1cccc(NC(=O)Nc2cc(C)on2)c1`, the “hERG current change (%, negative = inhibition) at 10uM” value is 9.14%.

With `COc1ccc(-c2csc(NC(=O)c3cccc(N4C(=O)CCC4=O)c3)n2)cc1C`, the “hERG current change (%, negative = inhibition) at 10uM” value came out at 9.77%.

On to `Cc1ccc(-c2cc(C(=O)NCCN3CCOCC3)no2)cc1`, for which the “hERG current change (%, negative = inhibition) at 10uM” value was -14%.

With `CCCn1c(SCC(=O)Nc2nnc(CC)s2)nnc1-c1ccco1`, the “hERG current change (%, negative = inhibition) at 10uM” value stood at 9.22%.

As for `Cl.O=C(CN1CCN(c2ccc(F)cc2)CC1)N1CCC(Cc2ccccc2)CC1`, the “hERG current change (%, negative = inhibition) at 10uM” value is given as -30.3%.

For `COc1cccc(Oc2cn[nH]c2-c2ccc(OCC(=O)NN)cc2O)c1`, the “hERG current change (%, negative = inhibition) at 10uM” value turned out to be 4.88%.

With `COc1cccc(-c2nc(CSCC(=O)NCC3CCCO3)c(C)o2)c1` (centres unmarked), the “hERG current change (%, negative = inhibition) at 10uM” value was -1.22%.

`COc1ccc(/C=C2\SC(=O)N(CC(=O)Nc3ccc(F)cc3)C2=O)cc1O`: the “hERG current change (%, negative = inhibition) at 10uM” value worked out at 15.9%.

`CC(C(=O)N1CCCCC1)N(C)CC(=O)Nc1ccc(Cl)cc1` (centres unmarked): the “hERG current change (%, negative = inhibition) at 10uM” value was 1.48%.

As to `CCOc1ccc(/C=N/NC(=O)CSc2n[nH]c(=O)[nH]c2=O)cc1OC`, the “hERG current change (%, negative = inhibition) at 10uM” value was determined as 7.73%.

As to `Cc1oc2c(C)c(O)ccc2c(=O)c1-c1cnn(-c2ccccc2)c1`, the “hERG current change (%, negative = inhibition) at 10uM” value was 9.43%.

Consider `CC(C)CC(C(=O)N1CCOCC1)N1Cc2ccccc2C1=O` (centres unmarked), for which the “hERG current change (%, negative = inhibition) at 10uM” value is recorded as 29.3%.

As for `COC(=O)CC1COc2ccccc2N1C(=O)/C=C/c1ccccc1` (centres unmarked), the “hERG current change (%, negative = inhibition) at 10uM” value is listed as -13.8%.

On to `COc1ccc(CNC(=O)c2ccc(Cn3nc(C)c([N+](=O)[O-])c3C)o2)cc1`, for which the “hERG current change (%, negative = inhibition) at 10uM” value was -33.9%.

In the case of `Nc1ccccc1C(=O)NC1CCCNC1=O` (centres unmarked), the “hERG current change (%, negative = inhibition) at 10uM” value was 2.4%.

Turning to `O=C(NCCCN1CCN(CCCNC(=O)c2ccc(F)cc2)CC1)c1ccc(F)cc1`, the “hERG current change (%, negative = inhibition) at 10uM” value is on record as -51.1%.

Take `CC12CCC(=O)N1C(C(=O)NNC(=O)c1ccc(Cl)cc1)CS2` (centres unmarked): the “hERG current change (%, negative = inhibition) at 10uM” value was -4.46%.

In the case of `Cc1cc(C)c(S(=O)(=O)Nc2cccc(C(=O)O)c2)cc1S(=O)(=O)Nc1cccc(C(=O)O)c1`, the “hERG current change (%, negative = inhibition) at 10uM” value was determined as 18.2%.

With `CCC(CC)c1nnc(NC(=O)CS(=O)(=O)c2ccc(C)cc2)s1`, the “hERG current change (%, negative = inhibition) at 10uM” value was determined as 22.8%.

Take `Cc1cc(OC(=O)c2ccccc2Cl)cc(=O)n1C`: the “hERG current change (%, negative = inhibition) at 10uM” value is recorded as -29.8%.

With `O=C(NC1CCCc2ccccc21)c1ccccc1OC(F)F` (centres unmarked), the “hERG current change (%, negative = inhibition) at 10uM” value was -9.69%.

In the case of `O=C(/C=C/c1ccc(O)cc1)c1ccc(NC2=C(N3CCCCC3)C(=O)c3ccccc3C2=O)cc1`, the “hERG current change (%, negative = inhibition) at 10uM” value is -7.85%.

Regarding `Cc1ccnc2nc(C(=O)OCC(=O)NC3CCC(C)CC3)nn12` (centres unmarked), the “hERG current change (%, negative = inhibition) at 10uM” value is recorded as -13.1%.

For `Cc1sc2ncnc(Sc3nc4ccccc4s3)c2c1C`, the “hERG current change (%, negative = inhibition) at 10uM” value stood at 5.53%.

In the case of `O=C(O)c1sccc1SCc1ccc(Cl)c(Cl)c1`, the “hERG current change (%, negative = inhibition) at 10uM” value was 14.1%.

As for `CCC(C)NC(=O)c1n[nH]c(=O)c2ccccc12` (centres unmarked), the “hERG current change (%, negative = inhibition) at 10uM” value was -3.51%.

For `COc1ccc(NC(=O)C2(S(=O)(=O)c3ccc(C)cc3)CC2)cc1OC`, the “hERG current change (%, negative = inhibition) at 10uM” value was found to be 1.87%.

As for `CCCNC(=O)c1c(CSc2ccc(Cl)cc2)noc1C(=O)NCc1ccccc1`, the “hERG current change (%, negative = inhibition) at 10uM” value was determined as 3.39%.

As for `Cc1ccccc1NS(=O)(=O)c1ccc2c(c1)n(C)c(=O)n2C`, the “hERG current change (%, negative = inhibition) at 10uM” value is recorded as -2.17%.

Consider `CCCC1(c2ccccc2)NC(=O)N(CC(=O)Nc2sc(-c3ccccc3)cc2C(=O)OCC)C1=O` (centres unmarked), for which the “hERG current change (%, negative = inhibition) at 10uM” value was determined as 17.9%.

Turning to `COc1ccc(NS(=O)(=O)c2cccc(C(=O)N3CCCCCC3)c2)cc1`, the “hERG current change (%, negative = inhibition) at 10uM” value is listed as -14%.

For the molecule `CCc1ccccc1NC(=O)c1sc2nc(C)cc(C)c2c1N`, the “hERG current change (%, negative = inhibition) at 10uM” value came to 0.897%.

Take `C/C(=N\NC(=O)NC1CCCCC1)c1ccc(Cl)s1`: the “hERG current change (%, negative = inhibition) at 10uM” value is 18.5%.

Regarding `Cc1ccc(Cl)cc1Nc1nc(N2CCOCC2)nc(N2CCOCC2)n1`, the “hERG current change (%, negative = inhibition) at 10uM” value is 2.37%.

In the case of `CCOc1ccccc1NC(=O)CSc1ccc([N+](=O)[O-])cc1`, the “hERG current change (%, negative = inhibition) at 10uM” value is given as 22.3%.

On to `Cc1nnc(SCC(=O)Nc2nc3ccccc3s2)n(N)c1=O`, for which the “hERG current change (%, negative = inhibition) at 10uM” value is on record as -5.14%.

Regarding `COc1ccc(C2CC(=O)Oc3c(C(CCN4CCOCC4)c4cc(OC)c(OC)c(OC)c4)c(OC)cc(OC)c32)cc1` (centres unmarked), the “hERG current change (%, negative = inhibition) at 10uM” value was -17.3%.

Take `Cc1ccc2[nH]c(=O)c(C(c3nnnn3CC3CCCO3)N3CCCc4ccccc43)cc2c1` (centres unmarked): the “hERG current change (%, negative = inhibition) at 10uM” value is reported as -17.5%.

Regarding `CCC(=O)Nc1ccc(-c2ccc(N3CCCCC3)nn2)cc1`, the “hERG current change (%, negative = inhibition) at 10uM” value was determined as 16.1%.

As for `CCCCOc1ccc(-c2nc(-c3cccnc3)no2)cc1`, the “hERG current change (%, negative = inhibition) at 10uM” value is -3.6%.

Consider `CC(NC(=O)COc1ccc(Br)cc1)C1CCCO1` (centres unmarked), for which the “hERG current change (%, negative = inhibition) at 10uM” value amounted to 10.8%.

`CCOc1ccc(CN2CCN(Cc3cccn3-c3ncccn3)CC2CCO)cc1` (centres unmarked): the “hERG current change (%, negative = inhibition) at 10uM” value is on record as -78.3%.

Take `COc1ccc(Cc2nnc(SCC(=O)NC3(C#N)CCCCC3)n2N)cc1`: the “hERG current change (%, negative = inhibition) at 10uM” value came to 9.35%.
